{"source": "the RNAGym collection of RNA variant scans (doi:10.1093/nar/gkz1192)", "parents": {"B1": {"name": "CPEB3 Ribozyme (parent)", "chain": "UAACAGGGGGCCACAGCAGAAGCGUUCACGUCGCAGCCCCUGUCAGAUUCUGGUGAAUCUGCGAAUUCUGCUGUAUAUCUC"}}, "note": "Read counts are not given, so values of variants with three or more changes are uncertain."}
{"variants_of": "B1", "experiment": "self-cleavage, relative activity (ratio to wild type); higher = more cleavage; in vitro, sequencing", "outline": "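For each CPEB3 ribozyme variant, relative activity is its cleaved/total read fraction divided by the unmutated ribozyme's. Barcoded error-prone PCR libraries were transcribed by T7 RNA polymerase (5 hours, 37°C) and held in DNase I for 15 min before an EDTA stop, with cleavage occurring throughout. Template-switching reverse transcription and Illumina sequencing were used to read the RNAs. A 5-read minimum applied, and results are the mean of three batches.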"}
{"variant": "UAACAGGGGGCCACAGCAUGAGCGUUCACGUCGCAGCCCCAGUCAGAUUCUAGUGAAUCUGCGAAUUCUGCUGUAUAUCUC", "note": "[G19U A20G U41A G52A]", "self-cleavage": 0.07}
{"variant": "UAACAGGGGGCCACAGCUGAAGCGUUCACGUCGCAGCCCCUGUCAGAUUCUGGUGAAUCCGCGAAUUCAGCUGUAUAUCUC", "note": "[A18U U60C U69A]", "self-cleavage": 0.65}
{"variant": "UAACAGGGGGCCACAGCAAAAGCGUUCACGACGUAGCCCCUGUCAGAUUCUGGUGAAUCUGCGAAUUCUGCUGUAUAUCUC", "note": "[G19A U31A C34U]", "self-cleavage": 0.14}
{"variant": "UAACAGGGGGCCACAGCAAAAGCGUUCACGUCGCAGCCCCUGCCAGAUUCUGGUGAAUCUGCGAAUUCCGCUGUAUAUCUC", "note": "[G19A U43C U69C]", "self-cleavage": 0.12}
{"variant": "UAACAGGGGGCCACAGCAAAAGCGUCCACGUCGCAGCCCCUGUCAAAUUCUGGUGAAUCUGCGAAUUCUGCUGUAUAUCUC", "note": "[G19A U26C G46A]", "self-cleavage": 0.23}
{"variant": "UAACAGGGGGCCACAGCAAAAGCGUUCACGUCGCAGCCCCUGUCAGAUUCUGGUGUAUCCGCGAAUUCUGCUGUAUAUCUC", "note": "[G19A A56U U60C]", "self-cleavage": 0.14}
{"variant": "UAACAGGGGGCCACAGCAAAAGCGUUCACGUCGCAGCCCCAGUCAGAUUCUGGUGAAUCUGCGAAUUCUGCUGUAAAUCUC", "note": "[G19A U41A U76A]", "self-cleavage": 0.18}
{"variant": "UAACAGGGGGCCACAGCAUAAGCGUUUGCGUCGCUGCCCCUGUCAGAUUCUGGUGAAUCUGCGAAUUCUGCUGUAUAUCUC", "note": "[G19U C27U A28G A35U]", "self-cleavage": 0.06}
{"variant": "UAACAGGGGGCCACAGCAUAAGCGUCCACGUCGCAGCCCCUGUCAGGCUCUGGUGAAUCUGCGAAUUCUGCUGUAUAUCUC", "note": "[G19U U26C A47G U48C]", "self-cleavage": 0.22}
{"variant": "UAACAGGGGGCCACAGCACAAGCGUUCACGUCGCAGCCCCUGUCAGAUUCUGGUGAAUCUGCGAAUUCCGCUGUAUUCCUC", "note": "[G19C U69C A77U U78C]", "self-cleavage": 0.06}
{"variant": "UAACAGGGGGCCACAGCAAAAGCGUCCACGUCGCAGCCCCUGUCGGAUUCUGGUGAAUCUGCGAAUUCUGCCGUAUAUCUC", "note": "[G19A U26C A45G U72C]", "self-cleavage": 0.2}
{"variant": "UAACAGGGGGCCACAGCAAAAGCGUUCACGUCGCAGCGCCUGUCAGAGUCCGGCGAAUCUGCGAGUUCUGCUGUAUAUCUC", "note": "[G19A C38G U48G U51C U54C A65G]", "self-cleavage": 0.17}
{"variant": "UAACAGGGGGCCACAGCACCAGCGUUCACGUCGCAGCCCCUGUCAGAUUCUGGUGAAUCUGCGAAUUCUGCUGUAUGUCUC", "note": "[G19C A20C A77G]", "self-cleavage": 0.23}
{"variant": "UAACAGGGGGCCACAGCUGAAGCGUUCACGUCGCAGCCCCUGUCAGAUUCUGGUGAACCGGCGAAUUCUGCUGUAUAUCUC", "note": "[A18U U58C U60G]", "self-cleavage": 0.12}
{"variant": "UAACAGGGGGCCACAGCAAAAGCGUUCACGUCGCCGCCCCUGUCAGACUCUGGUGAAUCUGCGAAUUCUGCUGUAUAUCAC", "note": "[G19A A35C U48C U80A]", "self-cleavage": 0.19}
{"variant": "UAACAGGGGGCCACAGCAAAAGCGUUCACGUCGCAACCCCUGUCAGAUUCUGGUGAACCUGCGAAUUCUGCUGUAUAUCUC", "note": "[G19A G36A U58C]", "self-cleavage": 0.12}
{"variant": "UAACAGGGGGCCACAGCAUAAGCUUUCACGUCGCAGCCCCUGUCAGACUCAGGUGAAUCUGCGAGUUCUGCUGUGUAUCUC", "note": "[G19U G24U U48C U51A A65G A75G]", "self-cleavage": 0.09}
{"variant": "UAACAGGGGGCCACAGCACAAGCGCUCACGUCGCAGCCCCUGUCAGAUUCCGGUGAGUCUGCGAAUUCUGCAGUAUAUCUC", "note": "[G19C U25C U51C A57G U72A]", "self-cleavage": 0.05}
{"variant": "UAACAGGGGGCCACAGCACAAGCGUCCACGUCGCAGCCCCUGUCAGAUUCUGGUGAAUCUGCGAAUUCUGCAGUAUAUCUC", "note": "[G19C U26C U72A]", "self-cleavage": 0.04}
{"variant": "UAACAGGGGGCCACAGCACAAGCGUUCUCGUCGCAGCCCCUGUCAGAUUCUGGUGAACCUGCGAAUUCUGCUGUAUAUCUC", "note": "[G19C A28U U58C]", "self-cleavage": 0.17}
{"variant": "UAACAGGGGGCCACAGCAUAAGCGUUCACGUCGCAGCCCUUGUCAGGCUCUUGUGAAUCUGCGAAUUCUGCUGUAUAUCUC", "note": "[G19U C40U A47G U48C G52U]", "self-cleavage": 0.12}
{"variant": "UAACAGGGGGCCACAGCAUAGGCAUUCACGUCGCGGCCCCUGUCGGAUUCUGGUGAAUCUGCGUAUUCUGCUGUAUAUCUC", "note": "[G19U A21G G24A A35G A45G A64U]", "self-cleavage": 0.12}
{"variant": "UAACAGGGGGCCACAGCAAAAGCGUUCACGUCGCAGCCCCUGUCAGAUUCUGGUGAAUCAGAGAAUUCUGCUGUAUAUCUC", "note": "[G19A U60A C62A]", "self-cleavage": 0.07}
{"variant": "UAACAGGGGGCCACAGCAUAAGCGUUCUCGUCGCAGCCCCUGUCAGGAUCUGGUGAAUCUGCGAAUUCUGCUGUAUAUCCC", "note": "[G19U A28U A47G U48A U80C]", "self-cleavage": 0.29}
{"variant": "UAACAGGGGGCCACAGCACAAGCGUCCACGUCACAGCCCCUGUCAGAUUCUGGUGAAUCCGCGAAUUCUGCUGUAUACCUC", "note": "[G19C U26C G33A U60C U78C]", "self-cleavage": 0.06}
{"variant": "UAACAGGGGGCCACAGCACAAGCGUUCACGUCGCGGCCCCUGUCAGAUUCUGGUGAAUCUGCGAAUUCUGCUGUAUACCUC", "note": "[G19C A35G U78C]", "self-cleavage": 0.58}
{"variant": "UAACAGGGGGCCACAGCAAAAGCGUACACGACGCAGCCCCUGUCAGAUUCAGGUGAAUCUGCGAACUCUGCUGUAUAUCUC", "note": "[G19A U26A U31A U51A U66C]", "self-cleavage": 0.07}
{"variant": "UAACAGGGGGCCACAGCUGAAGCGUUCACGUCGCAGCCCCUGUCAGAUUCUGGUGAAUCUGCGAACUCAGCUGUAUAUCUC", "note": "[A18U U66C U69A]", "self-cleavage": 0.41}
{"variant": "UAACAGGGGGCCACAGCAAAAGCGUUCGCGUCGCAGCCCCUGUCAGAUUCUGGUGAAUCUGCGAAUUCUGCUGCGUAUCUC", "note": "[G19A A28G U74C A75G]", "self-cleavage": 0.07}
{"variant": "UAACAGGGGGCCACAGCUGAAGCGUUCACGUCGCAGCCCCUGUCAGAUUCUGGCGAACCUGCGGAUUCUGCUGUAUAUCUC", "note": "[A18U U54C U58C A64G]", "self-cleavage": 0.15}
{"variant": "UAACAGGGGGCCACAGCAUAGGCGUUCACGUCGCAGCCCCUGUCAGAUUCUAGUGAAUCUGCGAAUUCUGCUGAAUAUCUC", "note": "[G19U A21G G52A U74A]", "self-cleavage": 0.1}
{"variant": "UAACAGGGGGCCACAGCUGAAGCGUUCACGUCGCAGCCCCUGUCAGAUUCUGGUGAAUCUGCGAACUCUGCCGUAUAUCUC", "note": "[A18U U66C U72C]", "self-cleavage": 0.32}
{"variant": "UAACAGGGGGCCACAGCUGAAGCGUUCACGUCGCAGCCCCUGUCAGAUUCUGGUGAAUCUGCGAACUCUGCAGUAUAUCUC", "note": "[A18U U66C U72A]", "self-cleavage": 0.23}
{"variant": "UAACAGGGGGCCACAGCAAAAGCGUUCACGUCGCAGCCCCUGUCAGAUUCUGGUGGAUCUGCGAAUUCUGCCGUAUAUCUC", "note": "[G19A A56G U72C]", "self-cleavage": 0.28}
